# Data taken from the supplement of paper PMC11369174, “Proteome-scale characterisation of motif-based interactome rewiring by disease mutations” (Molecular Systems Biology, 2024).
# This is one part of the list. Read counts after selection give these values, which scatter widely.
# Columns and labels:
# Experiment in all cases: mean normalised NGS count of phage-displayed peptide after selection on bait (% of reads); baits are purified protein domains named by gene / domain / UniProt id / residues; peptides come from disordered regions of human proteins; higher = stronger enrichment / binding
# ABL1_SH3__P00519_60_121 = molecular target: ABL1_SH3__P00519_60_121
# [1] = molecular target: Intersectin-1_SH3_2_Q15811_913_971
# [2] = molecular target: EPS8_SH3_1_Q12929_534_598 (clone: EPS8L1_SH3_1_Q12929_534_598); details: replicate selections in which the peptide was seen: 6
# NCK1_SH3_1_P16333_5_60 = details: replicate selections in which the peptide was seen: 6
# Src_SH3__P12931_87_144 = molecular target: Src_SH3__P12931_87_144
# [3] = molecular target: FKBP1A_full-length__P62942_1_108, P62942; details: replicate selections in which the peptide was seen: 2
# [4] = replicate selections in which the peptide was seen: 5
# [5] = replicate selections in which the peptide was seen: 2
# [6] = replicate selections in which the peptide was seen: 3
# [7] = replicate selections in which the peptide was seen: 4
# [8] = replicate selections in which the peptide was seen: 6
# Chain of ABL1_SH3__P00519_60_121 (chain, as listed by the source): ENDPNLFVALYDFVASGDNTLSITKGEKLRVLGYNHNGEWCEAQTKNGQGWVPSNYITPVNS
# Chain of FKBP1A_full-length__P62942_1_108, P62942 (P62942 whole entry): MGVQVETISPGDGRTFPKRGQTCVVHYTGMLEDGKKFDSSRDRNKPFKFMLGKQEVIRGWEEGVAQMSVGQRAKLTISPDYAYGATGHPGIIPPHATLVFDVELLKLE
binder,measurement,setting,value
KAAALLTPPPPPLFPP [COLQ 49-64 wt],mean normalised NGS count,ABL1_SH3__P00519_60_121; [4],0.0142
same,mean normalised NGS count,[1]; [5],0.00827
MGVPPPPPPAPDYVLP [NR5A1 126-141 wt],mean normalised NGS count,ABL1_SH3__P00519_60_121; [6],0.0223
same,mean normalised NGS count,[2],18.9
same,mean normalised NGS count,NCK1_SH3_1_P16333_5_60,27
same,mean normalised NGS count,Src_SH3__P12931_87_144; [7],0.103
YPPPPSMPPIRLDNVA [ANXA11 28-43 mut P50995.G38R],mean normalised NGS count,ABL1_SH3__P00519_60_121; [8],0.06
same,mean normalised NGS count,[3],0.109
YAGPEVAAPGLPELRA [NKX2-5 56-71 mut P52952.A61V],mean normalised NGS count,ABL1_SH3__P00519_60_121; [8],0.131
LPMQPPVPSQTSSYSA [PAX6 341-356 wt],mean normalised NGS count,ABL1_SH3__P00519_60_121; [8],0.726
LGTPATSPPPAPLAHL [TSC1 388-403 mut Q92574.S403L],mean normalised NGS count,ABL1_SH3__P00519_60_121; [7],0.021
TEPPMGVPPPPPPAPD [NR5A1 122-137 mut Q13285.G123E],mean normalised NGS count,ABL1_SH3__P00519_60_121; [8],0.897
FKLETGPPMGVPPPPP [NR5A1 118-133 wt],mean normalised NGS count,ABL1_SH3__P00519_60_121; [7],1.49
same,mean normalised NGS count,[1]; [7],0.807
PVAPAPAAPTLAAPAP [TP53 72-87 mut P04637.P82L],mean normalised NGS count,ABL1_SH3__P00519_60_121; [7],0.0226
YAGPEAAAPGLPEPRA [NKX2-5 56-71 mut P52952.L69P],mean normalised NGS count,ABL1_SH3__P00519_60_121; [6],0.00538
TPLPPPSPPPTASDRG [STAC2 72-87 wt],mean normalised NGS count,ABL1_SH3__P00519_60_121; [7],0.0194
FKLETEPPMGVPPPPP [NR5A1 118-133 mut Q13285.G123E],mean normalised NGS count,ABL1_SH3__P00519_60_121; [8],0.457
same,mean normalised NGS count,[1]; [4],8.75
ADSAPPPPAPSAPPPH [FOXC1 288-303 wt],mean normalised NGS count,ABL1_SH3__P00519_60_121; [7],0.00773
PPDFAAPKAQYQAPDM [IKBKG 392-407 wt],mean normalised NGS count,ABL1_SH3__P00519_60_121; [6],1.41
LPMQPPVPSQTSAYSA [PAX6 341-356 mut P26367.S353A],mean normalised NGS count,ABL1_SH3__P00519_60_121; [8],0.335
LPPQQHQPAQPGPAAS [KCNC3 36-51 mut Q14003.Q41H],mean normalised NGS count,ABL1_SH3__P00519_60_121; [5],0.00699
QQPPPPPPPAQQPPQT [FOXG1 72-87 mut P55316.P82Q],mean normalised NGS count,ABL1_SH3__P00519_60_121; [5],0.0427
same,mean normalised NGS count,Src_SH3__P12931_87_144; [5],0.0137
KQPPSNPPPRPPAEAR [CYBA 149-164 wt],mean normalised NGS count,ABL1_SH3__P00519_60_121; [4],0.36
PAHPPPSAAASAPAPS [CHCHD10 24-39 mut Q8WYQ3.P34S],mean normalised NGS count,ABL1_SH3__P00519_60_121; [7],0.0137
MGVLPPPPPAPDYVLP [NR5A1 126-141 mut Q13285.P129L],mean normalised NGS count,ABL1_SH3__P00519_60_121; [4],0.131
same,mean normalised NGS count,[2],14.8
same,mean normalised NGS count,NCK1_SH3_1_P16333_5_60,38.1
same,mean normalised NGS count,Src_SH3__P12931_87_144; [4],0.163
TPPGYSVPVPATELGS [TNFRSF13C 155-170 mut Q96RJ3.H159Y],mean normalised NGS count,ABL1_SH3__P00519_60_121; [4],0.359
FKLETGPPMGVPPLPP [NR5A1 118-133 mut Q13285.P131L],mean normalised NGS count,ABL1_SH3__P00519_60_121; [8],0.262
same,mean normalised NGS count,[1]; [5],0.078
SPRFSPPPASRLSPPA [MSX1 148-163 mut P28360.R157S],mean normalised NGS count,ABL1_SH3__P00519_60_121; [8],3.49
PASRPAAPSAHPPAHP [CHCHD10 12-27 wt],mean normalised NGS count,ABL1_SH3__P00519_60_121; [5],0.0028
PPPSYPSPKPATDPGL [EGR2 204-219 wt],mean normalised NGS count,ABL1_SH3__P00519_60_121; [8],0.186
